Laboratory results from patent US6664269B2, “Isoquinolinone derivatives” (Maybridge plc, priority 2001, dated 2003).

Target: Mammalian PARP, isolated from Hela cell nuclear extract (Homo sapiens, UniProt P09874)
Assay: PARP inhibition assay (FlashPlate, 3H-NAD incorporation)
Type: biochemical
Conditions: concentration at which 50% of the enzyme activity is inhibited; range normally 10 μM down to 0.01 μM; NAD 5 μM
Description: In order to assess the inhibitory action of the compounds, the following assay was used to determine IC50 values.
All compounds were diluted in DMSO and gave final assay concentrations of between 10 and 0.01 μM, with the DMSO being at a final concentration of 1% per well. The total assay volume per well was 40 μl.
After 10 minutes incubation at 30° C. the reactions were initiated by the addition of a 10 μl reaction mixture, containing NAD (5 μM), ^3H-NAD and 30mer double stranded DNA-oligos. Designated positive and negative reaction wells were done in combination with compound wells (unknowns) in order to calculate % enzyme activities. The plates were then shaken for 2 minutes and incubated at 30° C. for 45 minutes.
Following the incubation, the reactions were quenched by the addition of 50 μl 30% acetic acid to each well. The plates were then shaken for 1 hour at room temperature.
The plates were transferred to a TopCount NXT (TRADE MARK) (Packard, UK) for scintillation counting. Values recorded are counts per minute (cpm) following a 30 second counting of each well.
The % enzyme activity for each compound is then calculated using the following equation: [formula]
The results are detailed below as IC50 values (the concentration at which 50% of the enzyme activity is inhibited), which are determined over a range of different concentrations, normally from 10 μM down to 0.01 μM. Such IC50 values are used as comparative values to identify increased compound potencies.

Row | IC50 | SMILES
1 | 8500 nM | COc1cccc(Cc2cc3ccccc3c(=O)[nH]2)c1 [Compound 4, 3-(3-Methoxybenzyl)-1-isoquinolinone]
2 | 580 nM | O=c1[nH]c(CCc2ccccc2)cc2ccccc12 [Compound 2, 3-(2-Phenylethyl)-1-isoquinolinone]
3 | 1800 nM | O=c1[nH]c(Cc2cccc(O)c2)cc2ccccc12 [Compound 7, 3-(3-hydroxybenzyl)isoquinolinone]
